Columns and labels:
[1] = Aggregation propensity (% HMW) by analytical SEC of IgG1 anti-CD3 antibody and Fc variants (Example 35); assay type: physicochemical; details: PBS pH 7.4, anti-CD3 antibodies
Experimental: Size exclusion chromatography measurements were performed to evaluate the aggregation propensity (% HMW) of IgG1 antibody and Fc modified derivatives. The produced and purified anti CD3 antibodies were applied to an analytical size exclusion chromatography column (SEC 200, GE Healthcare), equilibrated with PBS buffer pH 7.4.

[2] = Differential scanning calorimetry, melting temperature of Fc modified anti-CD3 antibodies (Example 35); assay type: physicochemical; details: DSC, 1 mg/ml in PBS pH 7.4, anti-CD3 IgG1 Fc variants
Experimental: Calorimetric measurements were carried out on a differential scanning micro calorimeter (Nano DSC, TA instruments). The cell volume was 0.5 ml and the heating rate was 1° C./min. All proteins were used at a concentration of 1 mg/m in PBS (pH 7.4). The molar heat capacity of each protein was estimated by comparison with duplicate samples containing identical buffer from which the protein had been omitted. The partial molar heat capacities and melting curves were analyzed using standard procedure. Thermograms were baseline corrected and concentration normalized.

B1: WT allotype R214K (antibody)
heavy: EVQLVESGGGLVQPGGSLKLSCAASGFTFNTYAMNWVRQASGKGLEWVGRIRSKYNNYATYYADSVKDRFTISRDDSKSTLYLQMNSLKTEDTAVYYCVRHGNFGNSYVSWFAYWGQGTLVTVSS[here human IgG1 constant region without letters]
light: QAVVTQEPSLTVSPGGTVTLTCRSSTGAVTTSNYANWVQQKPGQAPRGLIGGTNKRAPWTPARFSGSLLGDKAALTLSGAQPEDEAEYFCALWYSNLWVFGGGTKLTVLGQPKAAPSVTLFPPSSEELQANKATLVCLISDFYPGAVTVAWKADSSPVKAGVETTTPSKQSNNKYAASSYLSLTPEQWKSHRSYSCQVTHEGSTVEKTVAPTECS
[1]
  (%) higher molecular weight: 7.7%
[2]
  Melting temperature (Tm) of CH2 domain: 70 °C

Source: patent publication US20240025993A1, “CD19 BINDING MOLECULES AND USES THEREOF” (NOVARTIS AG, priority 2020, published 2024)
